Results as given in PubChem BioAssay AID1508623 (National Center for Advancing Translational Sciences (NCATS), 2021).
The campaign covered roughly 48,000 compounds. About 450 (0.94%) were called active. Inconclusive results (about 19%) are left out. The call rests on the fitted dose curve; in most records, active means well fitted inhibition curve with a large enough effect; inconclusive means small, poorly fitted or top-dose-only effect; inactive means no such curve, though single readings can be large or run the other way. This is one part of the list.
Potency means the concentration at half of the fitted maximal effect.

Assay: Primary qHTS for Identification of Small Molecule Inhibitors of Huntingtin Promoter Activity; further: nearly all actives have a fitted effect of over 50% in size
Conditions: HEK293 HTT promoter firefly luciferase reporter (activity 0% = vehicle and -100% = no light), 24 h; series mostly up to 57.5 µM; activity change, negative = inhibition: at the top concentration
Summary of the method: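 Firefly luciferase readout (Dual-Glo, 10 min RT) after 24 h, 37 °C compound exposure (final up to 57.5 uM) of HEK293 reporter cells cultured 24 h beforehand; PTC124 at 50 uM final as control inhibitor; activity scaled vehicle 0%, zero RLU -100%.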
In the case of `CC1=C(C(=O)Nc2ccccc2)C(c2ccccc2)n2nc(-c3ccco3)nc2N1` (centres undefined), the “activity change, negative = inhibition” value is reported as inactive: -11.4%.
For `CC(=O)Nc1nnc(SCc2cc(=O)c3cc(C)ccc3[nH]2)s1`, the “activity change, negative = inhibition” value was inactive: -18.6%.
In the case of `NC(=O)NC1N=C([O][Al])NC1=O` (centres undefined), the “activity change, negative = inhibition” value is reported as inactive: 3.6%.
With `COc1ccc(NC(=O)Cn2c(SCc3cccc(Cl)c3)nc3ccncc32)c(OC)c1OC` the “activity change, negative = inhibition” value was inactive: 12.7%.
In the case of `Cc1ccc(NCc2cccn2-c2nnc(N3CCCCCC3)s2)cc1`, the Potency is reported as active: 7.94 µM.
With `CCOc1ccccc1NC(=O)C(C)Sc1cc(-c2ccccc2)nc(C)n1` (centres undefined) the “activity change, negative = inhibition” value was inactive: -15.2%.
With `CCCCNC(=O)C1CCN(S(=O)(=O)c2cc(Br)cc3c2N(C(=O)CC)CC3)CC1` the “activity change, negative = inhibition” value was inactive: -6.96%.
With `Cn1c(=O)cc(SCC(=O)NCc2ccc(F)cc2)c2ccc(Cl)cc21` the “activity change, negative = inhibition” value was inactive: -5.06%.
With `CCn1cc(C(=O)O)c(=O)c2ccc(C)nc21` the activity change, negative = inhibition was “inactive”.
For `CCN(CC)CCNC(=O)c1cc(S(C)(=O)=O)ccc1OC`, the “activity change, negative = inhibition” value was inactive: 7.06%.
For `CC(=O)c1ccc(NC(=O)C2CCC(CNS(=O)(=O)c3ccc(Br)s3)CC2)cc1` (centres undefined), the “activity change, negative = inhibition” value was inactive: -2.42%.
For `O=C(NC(=O)c1cccc(F)c1)Nc1ccc(-c2cc(C(F)(F)F)nn2-c2ccccc2)cc1`, the “activity change, negative = inhibition” value was inactive: -20.8%.
In the case of `Cc1nc(-c2ccc(C)c(N3CCN(C(=O)Nc4ccccc4C(F)(F)F)CC3)c2)no1`, the “activity change, negative = inhibition” value is reported as inactive: -20.3%.
With `Cc1ccc(C(=O)Nc2nnc(S(=O)(=O)N3CCOCC3)s2)cc1` the “activity change, negative = inhibition” value was inactive: 10.5%.
For `COC(=O)c1ccc(NC(=O)C2(S(=O)(=O)c3ccc(C)cc3)CC2)cc1`, the “activity change, negative = inhibition” value was inactive: 12.4%.
With `COC(=O)c1sc(-c2ccccc2)cc1NC(=O)c1cccc(F)c1` the “activity change, negative = inhibition” value was inactive: 13.1%.
With `Cc1ccc(CN2CCCn3nc(C(=O)NCCC(C)C)cc3C2=O)cc1` the “activity change, negative = inhibition” value was inactive: -22.4%.
In the case of `Cc1ccc(S(=O)(=O)N2CCC(Oc3ccc(-n4cnnn4)cc3)CC2)cc1`, the “activity change, negative = inhibition” value is reported as inactive: -2.78%.
For `COc1ccccc1-n1cc(-c2ccc(C)cc2)nc1S(=O)(=O)CC(=O)Nc1ccccc1C(F)(F)F`, the “activity change, negative = inhibition” value was inactive: -7.71%.
In the case of `COc1ccc(CNCCSc2nnnn2-c2ccccc2)cc1`, the “activity change, negative = inhibition” value is reported as inactive: -25.4%.
For `CCc1ccc(-n2nnc(-c3nc(-c4ccccc4)no3)c2C)cc1`, the “activity change, negative = inhibition” value was inactive: 54.1%.
With `COc1ccc(CCNC(=O)c2ccc3c(c2)N(Cc2cccc(C)c2)C(=O)c2ccccc2S3(=O)=O)cc1OC` the “activity change, negative = inhibition” value was inactive: 7.97%.
In the case of `COc1ccccc1NC(=O)CSc1nnc(-c2cccc(Cl)c2)o1`, the “activity change, negative = inhibition” value is reported as inactive: 17.3%.
In the case of `CCOc1ccccc1-c1nc(-c2ccc(-c3ccccc3)nc2OCC)no1`, the “activity change, negative = inhibition” value is reported as inactive: -9.28%.
For `CCn1cc(S(=O)(=O)c2cc(C)cc(C)c2)c(=O)c2cc(F)c(N3CCOCC3)cc21`, the “activity change, negative = inhibition” value was inactive: -13.2%.
In the case of `Cc1ccc(Nc2c3c(nc4nncn24)CCC3)cc1`, the “activity change, negative = inhibition” value is reported as inactive: -22.2%.
For `Cc1cc(C)cc(-n2cnc3cc(C(=O)NCCc4ccccc4)ccc32)c1`, the “activity change, negative = inhibition” value was inactive: -12.6%.
For `COc1cc(NC(=O)Cn2c(SCc3ccc(F)cc3)nc3cccnc32)cc(OC)c1`, the “activity change, negative = inhibition” value was inactive: -8.99%.
For `Cc1ccc(CCNC(=O)CCc2cn(Cc3ccccc3C)c3ccccc23)cc1`, the “activity change, negative = inhibition” value was inactive: -23.1%.
In the case of `O=C(c1cccc(Cl)c1)n1nc(-c2ccco2)nc1NCc1cccs1`, the “activity change, negative = inhibition” value is reported as inactive: 24.2%.
With `O=C(CNC(=O)c1ccccc1Cl)OCc1cc(=O)n2ccsc2n1` the “activity change, negative = inhibition” value was inactive: 1.29%.
With `Brc1csc(CN2CCc3nc(Nc4ccccc4)ncc3C2)c1` the “activity change, negative = inhibition” value was inactive: 0.557%.
For `Cc1cccc(NC(=O)c2cc(S(=O)(=O)N3CCCCC3)c[nH]2)c1C`, the “activity change, negative = inhibition” value was inactive: -9.89%.
For `Cc1cc(C)cc(OCC(=O)NCC(c2ccc(Cl)cc2)N2CCCCC2)c1` (centres undefined), the “activity change, negative = inhibition” value was inactive: 2.45%.
In the case of `Cn1c(=O)c2c(n3c4ccccc4nc13)NC(=O)CC2c1ccccc1F` (centres undefined), the “activity change, negative = inhibition” value is reported as inactive: -21.5%.
For `CCc1nnc2c(Nc3ccc(Br)c(C)c3)nc3ccccc3n12`, the “activity change, negative = inhibition” value was inactive: -8.09%.
For `COc1ccc(S(=O)(=O)N2CCN(c3ccc(F)cc3)CC2)cc1-c1noc(C)n1`, the “activity change, negative = inhibition” value was inactive: -17.3%.
For `CCc1ccccc1NC(=O)Cn1nnc(C(=O)OC)c1C(=O)OC`, the “activity change, negative = inhibition” value was inactive: -11.5%.
For `CCN(CC)S(=O)(=O)c1ccc2c(c1)N(CC(=O)Nc1c(C)cccc1C)C(=O)CO2`, the “activity change, negative = inhibition” value was inactive: -11.9%.
For `COc1ccc(OC)c(N(CC(=O)NCc2ccccc2)S(=O)(=O)c2ccccc2)c1`, the “activity change, negative = inhibition” value was inactive: -16.9%.
In the case of `CCc1ccc(NCc2cc3cc4c(cc3n(CC(=O)Nc3ccc(Cl)cc3)c2=O)OCO4)cc1`, the “activity change, negative = inhibition” value is reported as inactive: -15.5%.
For `COc1ccccc1CCNC(=O)c1ccc2c(c1)c(C)c(C)n2C`, the “activity change, negative = inhibition” value was inactive: 8.93%.
In the case of `Cc1cc(S(=O)(=O)Nc2cccc(C(=O)O)c2)c(C)c(S(=O)(=O)c2ccccc2)c1`, the “activity change, negative = inhibition” value is reported as inactive: -15.4%.
In the case of `COC(=O)c1cc(NC(=O)CCc2c(C)nc3c4c(C)cc(C)nc4nn3c2C)cc(C(=O)OC)c1`, the “activity change, negative = inhibition” value is reported as inactive: -18.6%.
In the case of `CCOC(=O)c1sc(N2C(=O)c3oc4cc(C)c(C)cc4c(=O)c3C2c2cccc(O)c2)nc1C` (centres undefined), the “activity change, negative = inhibition” value is reported as inactive: 3.89%.
With `O=C1NC(=O)C(=Cc2ccc3nccnc3c2)S1` the “activity change, negative = inhibition” value was inactive: 12.9% [at 25.2 µM].
For `CC1CCN(c2nc3c(S(=O)(=O)c4ccccc4)nnn3c3ccsc23)CC1`, the “activity change, negative = inhibition” value was inactive: -9.99%.
For `Oc1c(I)cc(I)c2cccnc12`, the “activity change, negative = inhibition” value was inactive: -2.21%.
For `COc1ccc(-c2nc(C)c(CCNC(=O)C(=O)Nc3cccc(F)c3)s2)cc1OC`, the “activity change, negative = inhibition” value was inactive: 5.59%.
